# According to PubChem BioAssay (NCATS):
# Where “and” joins values, the source holds several entries; their conditions need not be identical. Equal values may be shown once. This list was built around the results that the source calls inconclusive (neither active nor inactive); the mix of calls is not that of the screen. For some of these results: Where the call is inconclusive, the potency comes from a doubtful curve fit. Calls of active or inactive are those of the source. Calls come from the whole dose curve; as a rule, active = well fitted curve in the direction sought with a large enough effect; inconclusive = small, poorly fitted or top-dose-only effect, or another doubt; inactive = no such curve, though single readings can be large; an effect the other way counts as inactive or inconclusive.
# What was measured:
# MCC-26 = assay: qHTS assay to identify novel small-molecules to repurpose for Merkel cell carcinoma treatment (AID 1296009); details: MCC and control cell lines, CellTiter-Glo viability, 72 h; series mostly up to 46 µM; note: nearly all actives have a fitted effect of over 60% in size
# Procedure, shortened: (§1)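 After compound transfer in DMSO, plates were kept 72 hr at 37 degree celsius. Luminescent ATP signal from CellTiter-Glo served as viability measure, normalized against DMSO and no-cell controls.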
# WaGa = assay: as above; details: MCC and control cell lines, CellTiter-Glo viability, 72 h; series mostly up to 46 µM
# Procedure, shortened: as §1
# C33A = assay: Primary qHTS to identify gynecologic anti-cancer compounds using libraries of approved drugs and bioactive compounds (AID 1345084); details: Gynecologic cancer cell panel viability, ATPlite luminescence, 48 h; series mostly up to 57.5 µM; note: nearly all actives have a fitted effect of over 55% in size
# Procedure, shortened: (§2)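 Cell viability after 48 h drug treatment, ATPlite luminescence readout; five doses.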
# MKL-1 = assay: qHTS assay to identify novel small-molecules to repurpose for Merkel cell carcinoma treatment (AID 1296009); details: MCC and control cell lines, CellTiter-Glo viability, 72 h; activity change, negative = cytotoxicity: at 46 µM (top of the series); note: nearly all actives have a fitted effect of over 60% in size
# Procedure, shortened: as §1
# UISO = assay: as above; details: MCC and control cell lines, CellTiter-Glo viability, 72 h; series mostly up to 46 µM
# Procedure, shortened: as §1
# CASKI = assay: Primary qHTS to identify gynecologic anti-cancer compounds using libraries of approved drugs and bioactive compounds (AID 1345084); details: Gynecologic cancer cell panel viability, ATPlite luminescence, 48 h; series mostly up to 57.5 µM; note: nearly all actives have a fitted effect of over 55% in size
# Procedure, shortened: as §2
# MKL-2 = assay: qHTS assay to identify novel small-molecules to repurpose for Merkel cell carcinoma treatment (AID 1296009); details: MCC and control cell lines, CellTiter-Glo viability, 72 h; activity change, negative = cytotoxicity: at 46 µM (top of the series); note: nearly all actives have a fitted effect of over 60% in size
# Procedure, shortened: as §1
# CAOV3 = assay: Primary qHTS to identify gynecologic anti-cancer compounds using libraries of approved drugs and bioactive compounds (AID 1345084); details: Gynecologic cancer cell panel viability, ATPlite luminescence, 48 h; series mostly up to 57.5 µM; note: nearly all actives have a fitted effect of over 55% in size
# Procedure, shortened: as §2
# Es-2 = assay: as above; details: Gynecologic cancer cell panel viability, ATPlite luminescence, 48 h; series mostly up to 57.5 µM
# Procedure, shortened: as §2
# HeLa = assay: as above; details: Gynecologic cancer cell panel viability, ATPlite luminescence, 48 h; series mostly up to 57.5 µM
# Procedure, shortened: as §2
# Potency is the fitted concentration of half-maximal effect; tags give direction and shape of the fitted curve.
structure (smiles),measurement,setting,value
CC(C)n1c(C=C[C@H](O)C[C@H](O)CC(=O)O)c(-c2ccc(F)cc2)c2ccccc21,Potency,MCC-26,active: 20.9 µM
same,Potency,WaGa,active: 18.7 µM
CN(C)CCC=C1c2ccccc2COc2ccc(CC(=O)O)cc21,Potency,MCC-26,inactive
same,Potency,WaGa,inactive
COc1ccc(-c2nc3ccc(C4=NNC(=O)CC4C)cc3[nH]2)cc1 (centres undefined),Potency,C33A,"inconclusive: 39.8 µM [cytotoxic, single point]"
CC(CCc1ccc(O)cc1)NCCc1ccc(O)c(O)c1 (centres undefined),Potency,MKL-1,"inconclusive: 26.4 µM [inhibitor, single point] and active: 7.5 µM"
same,Potency,UISO,"inconclusive: 16.6 µM [inhibitor, partial curve, poor fit] and inconclusive: 23.7 µM [inhibitor, single point]"
same,Potency,WaGa,"inconclusive: 23.7 µM [inhibitor, single point]"
same,Potency,CASKI,inactive
CCCNCC(O)COc1ccccc1C(=O)CCc1ccccc1 (centres undefined),Potency,MKL-2,"inactive and inconclusive: 33.5 µM [inhibitor, single point]"
CCCNC(=O)Nc1ccc(Oc2ncnc3cc(OC)c(OC)cc23)cc1Cl,Potency,MKL-1,inactive
same,Potency,CASKI,inactive
C[C@@H](NCCCc1cccc(C(F)(F)F)c1)c1cccc2ccccc12,Potency,MKL-1,"inconclusive: 21.1 µM [inhibitor, single point]"
same,Potency,WaGa,"inconclusive: 20.9 µM [inhibitor, partial curve, poor fit]"
same,Potency,C33A,"inconclusive: 39.8 µM [cytotoxic, single point]"
same,Potency,CAOV3,"inconclusive: 35.5 µM [cytotoxic, single point]"
same,Potency,CASKI,"inconclusive: 35.5 µM [cytotoxic, single point]"
same,Potency,Es-2,"inconclusive: 28.2 µM [cytotoxic, single point]"
same,Potency,HeLa,"inconclusive: 39.8 µM [cytotoxic, single point]"
